Test results published in PubChem BioAssay AID2147 (National Center for Advancing Translational Sciences (NCATS), 2009).
In all, about 230,000 compounds went through this assay and about 3,600 (1.6%) were called active. The inconclusive results got no clear call from the source; some entries with a clear call stand among them for comparison. The call rests on the fitted dose curve; in most records, active means well fitted inhibition curve with a large enough effect (not every such curve was filed as active); inconclusive means small, poorly fitted or top-dose-only effect, or another doubt; inactive means no such curve, though single readings can be large or run the other way. A potency beside an inconclusive call is a rough fit, not a confirmed value.

Biological target: Lysine-specific demethylase 4E (Homo sapiens) (UniProt B2RXH2)
Assay: qHTS Assay for Inhibitors of Human Jumonji Domain Containing 2E (JMJD2E)
Conditions: JMJD2E catalytic domain, FDH-coupled NADH fluorescence (FDH is formaldehyde dehydrogenase); series mostly up to 57.1 µM
Further: nearly all actives have a fitted effect of over 50% in size.
Potency means the concentration at half of the fitted maximal effect; tags describe the fitted curve by direction and shape.

Chain of UniProt B2RXH2 (B2RXH2 whole entry, looked up, the tested form may be a part): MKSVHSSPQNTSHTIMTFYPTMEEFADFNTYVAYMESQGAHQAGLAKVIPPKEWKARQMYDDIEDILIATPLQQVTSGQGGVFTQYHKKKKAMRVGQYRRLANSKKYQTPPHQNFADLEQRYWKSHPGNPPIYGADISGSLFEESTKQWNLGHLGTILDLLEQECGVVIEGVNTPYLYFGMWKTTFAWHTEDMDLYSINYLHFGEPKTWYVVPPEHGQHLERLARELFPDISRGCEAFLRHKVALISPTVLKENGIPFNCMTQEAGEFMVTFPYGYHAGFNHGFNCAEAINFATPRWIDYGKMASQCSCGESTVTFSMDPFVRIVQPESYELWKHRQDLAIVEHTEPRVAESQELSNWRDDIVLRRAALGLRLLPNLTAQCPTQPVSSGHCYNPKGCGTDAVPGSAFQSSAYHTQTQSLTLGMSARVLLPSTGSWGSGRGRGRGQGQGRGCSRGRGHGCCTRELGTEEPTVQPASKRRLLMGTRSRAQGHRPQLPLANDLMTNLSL

SMILES | Potency
CCOC(=O)CNC(=O)c1ccc2[nH]c3ccccc3c2c1 | inconclusive: 28.2 µM [inhibitor, partial curve]
COc1cc([N+](=O)[O-])cc(/C=N/NC(=O)CSc2ccccn2)c1O | active: 20 µM
CN(C)CCCN(C(=O)CCc1ccccc1)c1nc2c(F)cccc2s1 | inactive
CCOC(=O)C1CCCN(C(=O)c2cnn3c(C(F)F)cc(-c4ccc(C)cc4)nc23)C1 (configuration not stated) | inconclusive: 22.4 µM [inhibitor, partial curve]
COc1cc(OC)c(OC)cc1/C=N/NC(=S)NCC1CCCO1 (configuration not stated) | inconclusive: 31.6 µM [inhibitor, partial curve]
NC(CSCc1ccccc1Cl)C(=O)O (configuration not stated) | inactive
O=[N+]([O-])c1cc(S(=O)(=O)N2CCCC2)ccc1N/N=C1/CCCc2ccccc21 | inactive
Cc1ccc(-c2cc(-c3nnc(SCC(=O)NCC(C)C)n3N)c3ccccc3n2)cc1 | inconclusive: 20 µM [inhibitor, partial curve]
CCOC(=O)N1CCN(CC(=O)Nc2ccc(F)cc2F)CC1 | inactive
O=C(O)Cc1ccc(S(=O)(=O)Nc2ccccc2C(=O)O)cc1 | inconclusive: 31.6 µM [inhibitor, partial curve]
Cc1ccc(N2CCN(C(=O)c3ccccc3NC(=O)C3CC=CCC3C(=O)O)CC2)cc1 (configuration not stated) | inconclusive: 22.4 µM [inhibitor, single point]
CC(C)c1ccc(/C=C2\Oc3c(ccc(O)c3CN3CCN(C)CC3)C2=O)cc1 | inconclusive: 28.2 µM [inhibitor, single point]
C=CCn1c(NC(=O)c2ccc(Br)o2)c(S(=O)(=O)c2ccccc2)c2nc3ccccc3nc21 | inconclusive: 25.1 µM [inhibitor, partial curve]
CSc1ccc2[nH]c(=O)cc(C)c2c1 | inconclusive: 28.2 µM [inhibitor, partial curve]
CCNC(=O)NC(=O)COC(=O)CCCc1nc2ccccc2s1 | inactive
COC1CCCCC1Nc1cc(C)cc(C)c1 (configuration not stated) | inconclusive: 39.8 µM [inhibitor, single point]
CC(C)(C)OC(=O)CNC(=O)c1[nH]cnc1C(=O)Nc1ccc(Cl)cc1 | inactive
COc1ccc(C2C=C(c3ccc(Br)cc3)Nc3nc(NS(C)(=O)=O)nn32)cc1 (configuration not stated) | inconclusive: 31.6 µM [inhibitor, partial curve]
COc1cc(-c2nc(S(=O)(=O)c3ccc(C)cc3)c(N(C)C)o2)cc(OC)c1OC | inconclusive: 39.8 µM [inhibitor, single point]
Cc1ccccc1NC(=O)c1c([N+](=O)[O-])c(C(C)(C)C)nn1C | inactive
Cc1ccc(CNC(=O)c2ccc[nH]2)cc1 | inconclusive: 39.8 µM [inhibitor, single point]
COc1ccc(O[C@H]2C=C[C@@H](c3ccccc3)O[C@@H]2CO/N=C(\C)CCN2CCc3nc(-c4ccccc4)c(-c4ccccc4)cc3C2)cc1 | inconclusive: 39.8 µM [inhibitor, single point]
Cc1ccccc1C(=O)Nc1ccc(N2CCCC2)cc1 | inactive
O=C(Oc1ccc2c3c(c(=O)oc2c1)CCC3)c1ccco1 | inconclusive: 10 µM [inhibitor, partial curve]

SMILES | Potency
Cc1ccc2nc(Nc3ccc4[nH]c(=O)[nH]c4c3)c(-n3nc(C)cc3C)nc2c1 | inactive
Cc1ccc(-c2nsc3c(N4CCN(C(=O)c5ccco5)CC4)ncnc23)cc1 | inconclusive: 25.1 µM [inhibitor, single point]
CC1(C)CC(=O)c2cc(OCC(=O)NCCN3CCCc4ccccc43)ccc2O1 | inconclusive: 35.5 µM [inhibitor, partial curve]
N=C(N)c1ccc(Cl)cc1 | inactive
C(=N\n1cnnc1)/c1cn(-c2cccs2)nc1-c1ccccc1 | inconclusive: 7.94 µM [inhibitor, single point]
O=C(NC1CCCCC1)N(Cc1cc2cc3c(cc2[nH]c1=O)OCCO3)C1CCCCC1 | inconclusive: 6.31 µM [inhibitor, full curve]
CC(=O)Nc1sc2c(c1CN1CCN(c3ccccn3)CC1)CCCC2 | inactive
O=C1CCCN1CCCNc1ncnc2c1[nH]c1ccccc12 | inconclusive: 35.5 µM [inhibitor, partial curve]
CSc1oc(-c2ccco2)nc1S(=O)(=O)c1ccc(Br)cc1 | inconclusive: 39.8 µM [inhibitor, single point]
CN1CCCN(Cc2ccccc2C(F)(F)F)CC1 | inconclusive: 28.2 µM [inhibitor, single point]
Cc1cc(/C=N/Nc2ccc([N+](=O)[O-])cn2)c(C)n1-c1ccc(C(=O)O)cc1 | inactive
O=S(=O)(c1ccc(NC(=S)N/N=C/c2ccc(N3CCOCC3)cc2)cc1)N1CCOCC1 | inconclusive: 14.1 µM [inhibitor, partial curve]
CCC(=O)N(Cc1ccco1)Cc1cc2cc3c(cc2[nH]c1=O)OCO3 | inconclusive: 0.447 µM [inhibitor, full curve]
O=C(CNCc1ccco1)Nc1cccc(S(=O)(=O)N2CCCCC2)c1 | inconclusive: 39.8 µM [inhibitor, single point]
Cc1ccc(Nc2nc(N3CCOCC3)c3ccccc3n2)cc1 | inconclusive: 25.1 µM [inhibitor, single point]
CCC(C)NCCOc1cccc(Br)c1 (configuration not stated) | inconclusive: 39.8 µM [inhibitor, single point]
COC(=O)c1sc(NC(=O)c2ccoc2C)nc1C | inconclusive: 35.5 µM [inhibitor, single point]
Cc1oc(=O)c(NC(=O)c2ccc(Cl)cc2)cc1C(=O)c1ccccc1 | inconclusive: 35.5 µM [inhibitor, single point]
Cc1ccc(C(=O)N2CCN(C3c4cccc5cccc(c45)C3NS(=O)(=O)c3ccccc3)CC2)cc1 (configuration not stated) | inactive
CN(C)c1ccc(/C=N/NC(=O)c2ccc(Cl)cc2)cc1 | inconclusive: 35.5 µM [inhibitor, single point]
Cc1ccc(Nc2nc(N)nc(-c3oc4ccccc4c3C)n2)cc1 | inconclusive: 39.8 µM [inhibitor, single point]
O=C(NC(=S)NNC(=O)[C@H]1C[C@@H]1c1ccccc1)c1ccc(F)cc1 | inconclusive: 35.5 µM [inhibitor, single point]
Cn1nc(C(F)(F)F)c(/C=N/OC(=O)c2ccccc2)c1Sc1ccc(Cl)cc1 | inactive
C=CSc1sc(Cl)c(N(C)C)c1[N+](=O)[O-] | inactive

SMILES | Potency
Cc1cccc(N(Cc2cc3ccccc3[nH]c2=O)C(=O)c2cccs2)c1 | inconclusive: 35.5 µM [inhibitor, single point]
CCN(Cc1cc2ccc(C)cc2[nH]c1=O)C(=O)c1ccncc1 | inconclusive: 31.6 µM [inhibitor, single point]
CCN1CCN(c2cc(C)c3cc(NC(=O)c4ccccc4F)ccc3n2)CC1 | inconclusive: 31.6 µM [inhibitor, single point]
CCc1ccc(NC(=S)Nc2ccc3[nH]c(=O)[nH]c3c2)cc1 | inactive
CCn1cnc2c1c(=O)n(Cc1nnc3n1-c1ccccc1SC3)c(=O)n2Cc1ccccc1 | inactive
CCCn1c(N/N=C\C=C\c2ccccc2)nc2c1c(=O)[nH]c(=O)n2C | inconclusive: 25.1 µM [inhibitor, single point]
Cc1c(N)cc[n+](CC(=O)c2ccccc2)c1C | inactive
Cn1c(-c2ccccc2)cnc1SCc1nc2ccccc2c(=O)[nH]1 | inactive
O=C(CNC(=O)C(c1ccccc1)c1ccccc1)OCc1ccccc1 | inactive
CCC1CCCCN1C(=O)CSc1nnc(-c2ccc(Cl)s2)o1 (configuration not stated) | inconclusive: 28.2 µM [inhibitor, single point]
CCS(=O)(=O)N1CCN(C2Cc3ccccc3C2)CC1 | inconclusive: 25.1 µM [inhibitor, single point]
O=C(COc1ccccc1C(=O)O)NC1CCCc2ccccc21 (configuration not stated) | inconclusive: 39.8 µM [inhibitor, single point]
COc1ccc(C2C(CC(=O)O)=C(O)C(=O)N2c2ccccc2)cc1 (configuration not stated) | inconclusive: 28.2 µM [inhibitor, single point]
COc1cc(CNC(C)(C)C)cc(Br)c1OCc1cccs1 | inactive
O=C(Oc1ccc(/C=N/n2cnnc2)cc1)c1cccc([N+](=O)[O-])c1 | inconclusive: 39.8 µM [inhibitor, single point]
COc1ccc2cc(-c3[nH]ncc3CN3CCCC3c3nonc3C)ccc2c1 (configuration not stated) | inactive
CCn1c(CSc2nc3ccccc3[nH]2)nc2cc(C(=O)O)ccc21 | inconclusive: 31.6 µM [inhibitor, partial curve]
Cc1cccc(N2C(=O)CC(Sc3ccccc3C(=O)O)C2=O)c1 (configuration not stated) | inactive
Cn1cc(Cl)c(C(=O)NNC(=S)Nc2cccc(Cl)c2)n1 | inconclusive: 28.2 µM [inhibitor, single point]
O=C(O)CCCNS(=O)(=O)c1ccc2ccccc2c1 | inactive
COc1ccc(C(=O)/C=C/Nc2cc(C)ccn2)cc1 | inconclusive: 39.8 µM [inhibitor, single point]
Cc1ccc(-c2ccnc3nc(Sc4ncc(C(F)(F)F)cc4Cl)nn23)cc1 | inconclusive: 28.2 µM [inhibitor, partial curve]
COCC(=O)n1nc(-c2ccc(C)cc2)nc1NCc1ccc(F)cc1 | inconclusive: 39.8 µM [inhibitor, single point]
c1cnc(N2CC[N+]3(CCCC3)CC2)nc1 | inconclusive: 25.1 µM [inhibitor, single point]
